Reference: the supplement of paper PMC4166925
± gives the standard deviation of the averaged measurements. The full ranking holds about 33,000 sequences; the median of “E-score (dimensionless, -0.5 to 0.5)” is about -0.046, and the highest 2% start at about 0.36. The list shows a part of the results.

tested on: T1, SpTbr T-box DNA-binding domain (GST fusion); test: PBM E-score of 8-mer (E-score (dimensionless, -0.5 to 0.5)); Tbr is Tbrain of the sea star Patiria miniata (Pm) or the sea urchin Strongylocentrotus purpuratus (Sp); higher = stronger binding preference; most listed sequences are background and not binding sites; conditions: the construct has about 5 more residues each side
T1 sequence: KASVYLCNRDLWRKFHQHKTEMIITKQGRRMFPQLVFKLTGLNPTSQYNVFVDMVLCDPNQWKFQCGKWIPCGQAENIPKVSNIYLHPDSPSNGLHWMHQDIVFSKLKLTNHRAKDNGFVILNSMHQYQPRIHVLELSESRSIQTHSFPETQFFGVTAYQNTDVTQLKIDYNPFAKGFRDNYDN
Outline: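 Universal Agilent oligonucleotide arrays, made double-stranded by primer extension, were incubated with 200 nM GST-fused Tbr T-box DNA-binding domain in PBS (pH 7.5). The protein was expressed in BL21 E. coli at 20 °C and purified by glutathione affinity chromatography. After scanning and quantification, the Universal PBM Analysis Suite assigned an enrichment E-score to each ungapped 8-mer, averaged over duplicate arrays.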

Sequence | PBM E-score of 8-mer
CCTTGTCC | -0.138 ± 0.0016
TACGTGGA | -0.0926 ± 0.031
CGTTGAAG | 0.0941 ± 0.031
CTCTGCTC | -0.146 ± 0.017
AGCTTAAT | -0.164 ± 0.064
CCTCTAGA | -0.201 ± 0.0095
ATACTTGC | 0.0754 ± 0.026
GCGAGTAC | 0.1046 ± 0.00019
CCGCAAAA | 0.027 ± 0.0036
ATTAGACC | -0.22 ± 0.017
GTGGGAAA | 0.3193 ± 0.0012
CAACGACC | -0.138 ± 0.018
AGGACCCC | -0.239 ± 0.017
CGGGCCCA | -0.27 ± 0.046
CCGATTCA | -0.0626 ± 0.029
CCGGGTAC | -0.0634 ± 0.0066
CTCACCCA | 0.202 ± 0.017
GACTATCC | -0.0837 ± 0.046
ATTAGTAG | -0.0283 ± 0.097
CTCCCATC | -0.193 ± 0.11
AACAACTT | 0.134 ± 0.048
GCCACGGA | -0.1 ± 0.094
CAGAGACA | 0.0443 ± 0.011
ACACCTCT | 0.479 ± 0.0083
ACAACTTC | 0.146 ± 0.046

Sequence | PBM E-score of 8-mer
CGGCCTCA | -0.0875 ± 0.037
GAATTAGA | -0.203 ± 0.013
ACACTTTG | 0.379 ± 0.005
GCTGCAAA | 0.0289 ± 0.04
TTATGAAA | -0.0615 ± 0.018
AGCTCGTC | -0.287 ± 0.087
AATCGAAG | -0.0748 ± 0.089
CAATCCTG | 0.143 ± 0.045
CACTCCGG | 0.278 ± 0.018
ATGGCTGA | -0.185 ± 0.028
CGCCGGAC | -0.231 ± 0.019
ATTTGCGG | -0.0823 ± 0.027
CCGATGCC | -0.223 ± 0.03
TAGCGAGA | 0.171 ± 0.013
AACCCTCT | -0.219 ± 0.054
AGCCTAGC | -0.0329 ± 0.015
AGACCCGA | 0.114 ± 0.051
CCGCGTCA | 0.132 ± 0.026
TGCTACCA | 0.00517 ± 0.074
CTACACTC | 0.0766 ± 0.037
ACCTCTTG | 0.0732 ± 0.065
TAGCACGA | 0.141 ± 0.021
AACCCGAA | 0.00605 ± 0.041
AGTACGAG | -0.276 ± 0.028
AACGGCGT | 0.112 ± 0.033

Sequence | PBM E-score of 8-mer
CGACTTAG | 0.11 ± 0.017
GCTAACTA | 0.116 ± 0.011
GCCCCTTA | -0.159 ± 0.063
ACTCTTCG | 0.113 ± 0.071
GCCCTAAA | -0.147 ± 0.027
ACCAAACG | -0.00694 ± 0.035
GAGTTTAC | 0.136 ± 0.052
ACTCCAGT | -0.143 ± 0.032
CTACTGTC | 0.1 ± 0.024
ACTAACAT | -0.0379 ± 0.014
GAGGTCCC | -0.117 ± 0.013
AATTATCG | 0.0187 ± 0.065
TGCGCACA | 0.0613 ± 0.041
TACTAGTA | -0.239 ± 0.0066
ATATTACC | -0.0985 ± 0.0069
GAGTTCGA | -0.139 ± 0.071
AATCGGGG | -0.0949 ± 0.017
AGAAGAAA | -0.151 ± 0.011
AATATAGC | 0.0183 ± 0.026
CGCGGGGC | -0.0601 ± 0.11
GCTAGCAA | 0.162 ± 0.021
CAGCCGCC | -0.0473 ± 0.0081
ACTAGAGC | 0.0656 ± 0.034
ACATAGGA | -0.1859 ± 0.00088
GCTCTCGA | 0.0727 ± 0.01

Sequence | PBM E-score of 8-mer
CCGACTCA | -0.0198 ± 0.019
CAAGAGTA | -0.214 ± 0.013
GAGACCAC | -0.126 ± 0.036
CGATCGGA | -0.24 ± 0.025
AGTTTGTA | -0.151 ± 0.011
CGATTACG | -0.0587 ± 0.08
ATATCGAC | 0.0956 ± 0.0078
CGTATTCA | 0.13 ± 0.05
ATACCAGC | -0.0597 ± 0.0054
AGGTTGAT | -0.0456 ± 0.014
ATTTGAAG | -0.272 ± 0.061
GACCTACC | -0.129 ± 0.006
TATAGAGA | -0.258 ± 0.068
CGCGACTC | 0.233 ± 0.018
CGTGACAC | 0.38 ± 0.015
AGCAGATG | -0.0124 ± 0.045
CCATTTCA | -0.22 ± 0.089
AATCGAAA | -0.0861 ± 0.034
CTCATGTA | -0.0391 ± 0.0025
GCAACGAC | 0.0844 ± 0.037
AAAGCGGG | -0.152 ± 0.066
GACTCATC | -0.261 ± 0.016
CAGGTGCC | 0.388 ± 0.034
ACGCACGG | 0.0487 ± 0.026
ATTCGGTA | -0.259 ± 0.0054

Sequence | PBM E-score of 8-mer
GTCGATAA | 0.18 ± 0.03
AGATGGAC | -0.205 ± 0.039
AAAGAAGT | 0.0111 ± 0.089
ACTGAGCA | -0.0925 ± 0.081
CAACTTGA | 0.123 ± 0.077
ATGGGGGA | -0.214 ± 0.037
GAAGATTA | -0.0119 ± 0.017
AACGAATT | -0.00591 ± 0.12
TCATCACA | 0.3345 ± 0.0029
ACACAGCT | 0.167 ± 0.058
TAGGTGCA | 0.12 ± 0.033
CCAACAAA | 0.137 ± 0.064
AAACCTAA | -0.102 ± 0.035
ACAGGAAG | -0.0342 ± 0.044
GAAGAACA | -0.233 ± 0.015
GCTAACCC | 0.04 ± 0.097
CCCAGCAA | -0.0103 ± 0.021
CGAGAGGA | 0.1 ± 0.013
ATAGCTAG | -0.102 ± 0.023
GTCAAGGA | -0.0692 ± 0.085
CATTGCAG | -0.0289 ± 0.057
CGACGGTA | -0.0651 ± 0.0018
AGTTGACC | -0.106 ± 0.098
CCAGAGAC | 0.00323 ± 0.0032
GATTTCTA | -0.00464 ± 0.057

Sequence | PBM E-score of 8-mer
ACGAATGG | 0.0767 ± 0.013
AATGCGCT | -0.187 ± 0.032
CAACGCTA | 0.0932 ± 0.022
CTTTGGGC | -0.279 ± 0.041
CGCAACCA | -0.00136 ± 0.0027
ATTCGGAC | -0.275 ± 0.059
GGCACCAA | 0.163 ± 0.017
GATGTAGA | -0.161 ± 0.016
AACGCAAC | -0.0802 ± 0.023
ACTAATAT | -0.126 ± 0.064
ATCGGTCG | 0.02 ± 0.022
GGTCTACA | -0.0571 ± 0.025
AAAGCTCG | -0.183 ± 0.062
GTAAATGA | -0.141 ± 0.0089
AATTACAT | -0.013 ± 0.13
CGGGACAA | -0.225 ± 0.06
CATATGGC | -0.221 ± 0.019
ACATGAAA | -0.0431 ± 0.11
CAGATGGC | -0.0733 ± 0.047
GGTCACTA | 0.126 ± 0.039
GTTGGTGA | 0.115 ± 0.0023
ATTTGAGG | -0.158 ± 0.12
CAGGGAAC | -0.0919 ± 0.034
AAGAACCA | -0.116 ± 0.0052
AATACGCT | -0.02 ± 0.051

Sequence | PBM E-score of 8-mer
AATTCAGT | -0.0889 ± 0.013
AAATGTGC | 0.151 ± 0.076
TGCGACCA | 0.201 ± 0.054
GGCTCCGA | -0.15 ± 0.066
CGTGCAGA | -0.165 ± 0.063
CCGTGTGA | 0.381 ± 0.017
TCTCGGAA | -0.22 ± 0.013
AATTAAGG | -0.139 ± 0.011
CATTCGAG | -0.142 ± 0.034
AGCCAAAG | -0.209 ± 0.037
AGCGTGCG | 0.327 ± 0.052
CCATATAA | -0.221 ± 0.022
AATACGAA | -0.203 ± 0.023
CATTTAGC | -0.0123 ± 0.032
GTAGAAGA | -0.319 ± 0.029
CCGCCCTA | -0.2293 ± 0.00091
GAAGAGAC | -0.292 ± 0.031
AACAGCTA | 0.232 ± 0.018
CACAACCC | 0.176 ± 0.013
CACATAAG | 0.144 ± 0.027
GCAAAGGC | -0.169 ± 0.073
CACCGGGA | 0.142 ± 0.033
AGTATACT | -0.224 ± 0.08
ATTAGAAA | -0.188 ± 0.048
ACGCCGAT | -0.0232 ± 0.022

Sequence | PBM E-score of 8-mer
AGCCAACT | -0.173 ± 0.045
GAGCGTAA | -0.197 ± 0.051
GGAAGACC | -0.0376 ± 0.01
AACTGATT | -0.227 ± 0.019
AGCGTAAC | -0.00288 ± 0.013
GACGAGTC | -0.101 ± 0.024
CCGTTACG | -0.121 ± 0.042
AAAGTTGG | -0.0293 ± 0.026
TAATGATA | -0.111 ± 0.0097
GGTGCCAC | 0.368 ± 0.0043
AAAATGAT | -0.0776 ± 0.058
CTTTCCCA | 0.0635 ± 0.052
ACGCTCTA | -0.069 ± 0.031
CGCTGCGA | 0.119 ± 0.035
AGCGCAAG | -0.0521 ± 0.018
CTCCGTCA | -0.00211 ± 0.014
AGTGGGTC | -0.0827 ± 0.061
AATCTGCT | -0.12 ± 0.082
AGGTTGCC | -0.121 ± 0.097
AGGCACCT | 0.148 ± 0.033
CCTGGCCC | -0.154 ± 0.035
CTCAATCA | 0.0409 ± 0.039
CTAAGTAA | -0.175 ± 0.011
ACGTAACG | -0.0714 ± 0.023
GACCGTGA | 0.123 ± 0.029

Sequence | PBM E-score of 8-mer
AAAGCAAA | 0.00628 ± 0.091
CACCCATC | 0.0856 ± 0.027
CTGTGGCC | -0.164 ± 0.0082
AGCTGTTC | 0.029 ± 0.014
AAACAGGT | 0.0685 ± 0.011
CAATTAAG | -0.0947 ± 0.083
TCAACTCA | -0.0438 ± 0.019
GAGCCAAA | -0.0573 ± 0.016
AATCAGGT | 0.132 ± 0.01
AAGTTCAA | 0.0375 ± 0.055
AATCTCCC | -0.157 ± 0.07
AGCTACCA | -0.0691 ± 0.0051
CTATAAAG | -0.0624 ± 0.0033
GATTTGCC | -0.0903 ± 0.013
CCCTTTGA | -0.0585 ± 0.032
GCCGCACA | 0.0689 ± 0.027
ATATAACC | -0.0722 ± 0.02
AAACCTAG | 0.0536 ± 0.035
GCAGCCCA | -0.122 ± 0.052
